Data taken from patent US20180371044A1, “PEPTIDOMIMETIC MACROCYCLES” (Aileron Therapeutics, Inc., priority 2015, published 2018).
For at least one compound, name, drawing or mass did not settle the structure. Where a SMILES comes first, the peptide text is derived from it. Bridges are numbered along the chain shown (N, C = ends). [ ]: non-standard residue; d: D form. NMeY = CN[C@@H](Cc1ccc(O)cc1)C(=O)O; R8 = C=CCCCCCC[C@@](C)(N)C(=O)O; S5 = C=CCCC[C@](C)(N)C(=O)O; Nle = CCCC[C@H](N)C(=O)O

The molecules below were run against T1, human GHRH receptor (hGHRHR) (Homo sapiens, UniProt Q02643) (assay: GHRHR agonism measured by cAMP (HTRF) in human 293 cells expressing hGHRHR). Conditions: 30 min at RT.
T1 construct: expressed in transfected cells; host or cells: Human 293 cells
T1 sequence (Q02643 23-423): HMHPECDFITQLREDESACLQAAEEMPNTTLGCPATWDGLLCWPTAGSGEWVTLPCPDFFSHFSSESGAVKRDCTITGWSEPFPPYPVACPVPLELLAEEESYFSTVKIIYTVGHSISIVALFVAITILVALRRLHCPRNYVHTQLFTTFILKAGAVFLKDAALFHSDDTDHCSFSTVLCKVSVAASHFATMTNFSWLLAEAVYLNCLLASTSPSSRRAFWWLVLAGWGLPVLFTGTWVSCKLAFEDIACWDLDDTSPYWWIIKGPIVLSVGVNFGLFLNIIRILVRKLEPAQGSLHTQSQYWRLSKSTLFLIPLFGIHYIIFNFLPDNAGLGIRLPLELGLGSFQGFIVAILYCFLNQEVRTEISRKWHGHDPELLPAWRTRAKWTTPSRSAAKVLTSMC
Type: cell-based

| SMILES | EC50 [nM] |
| --- | --- |
| CCCC[C@H](NC(=O)[C@@H](NC(=O)[C@H](CC(=O)O)NC(=O)[C@H](CCC(N)=O)NC(=O)[C@H](CC(C)C)NC(=O)[C@H](C)NC(=O)[C@H](CCCCN)NC(=O)[C@H](CCCNC(=N)N)NC(=O)[C@]1(C)CCCC=CCCCCCC[C@@](C)(NC(=O)[C@H](CCCNC(=N)N)NC(=O)[C@H](Cc2ccc(O)cc2)NC(=O)[C@H](CO)NC(=O)[C@H](C)NC(=O)[C@@H](NC(=O)[C@H](Cc2ccccc2)NC(=O)[C@@H](NC(=O)[C@H](C)NC(=O)[C@H](CC(=O)O)NC(=O)[C@H](C)NC(=O)[C@H](Cc2ccc(O)cc2)NC)[C@@H](C)CC)[C@@H](C)O)C(=O)N[C@@H](C(C)C)C(=O)N[C@@H](CC(C)C)C(=O)N[C@@H](C)C(=O)N[C@@H](CCC(N)=O)C(=O)N[C@@H](CC(C)C)C(=O)N[C@@H](CO)C(=O)N1)[C@@H](C)CC)C(=O)N[C@@H](CO)C(=O)N[C@@H](CCCNC(=N)N)C(N)=O (single isomer, unassigned) [SP-58] | > 50 |
| CCCC[C@H](NC(=O)[C@@H](NC(=O)[C@H](CC(=O)O)NC(=O)[C@H](CCC(N)=O)NC(=O)[C@H](CC(C)C)NC(=O)[C@H](C)NC(=O)[C@H](CCCCN)NC(=O)[C@H](CCCNC(=N)N)NC(=O)[C@H](C)NC(=O)[C@H](CO)NC(=O)[C@H](CC(C)C)NC(=O)[C@H](CCC(N)=O)NC(=O)[C@H](C)NC(=O)[C@H](CC(C)C)NC(=O)[C@@H](NC(=O)[C@H](CCCCN)NC(=O)[C@H](CCCNC(=N)N)NC(=O)[C@H](Cc1ccc(O)cc1)NC(=O)[C@H](CO)NC(=O)[C@]1(C)CCCC=CCCC[C@](C)(NC(=O)[C@H](CC(=O)O)NC(=O)[C@H](C)NC(=O)[C@H](Cc2ccc(O)cc2)NC)C(=O)N[C@@H]([C@@H](C)CC)C(=O)N[C@@H](Cc2ccccc2)C(=O)N[C@@H]([C@@H](C)O)C(=O)N1)C(C)C)[C@@H](C)CC)C(=O)N[C@@H](CO)C(=O)N[C@@H](CCCNC(=N)N)C(N)=O [SP-7] (H-[NMeY]AD[S5]IFT[S5]SYRKVLAQLSARKALQDI[Nle]SR-NH2; staple 4-8; N-terminus and C-terminus assumed) | 1 to 10 |
| CCCC[C@H](NC(=O)[C@]1(C)CCCC=CCCC[C@](C)(NC(=O)[C@H](CCCCN)NC(=O)[C@H](CCCNC(=N)N)NC(=O)[C@H](C)NC(=O)[C@H](CO)NC(=O)[C@H](CC(C)C)NC(=O)[C@H](CCC(N)=O)NC(=O)[C@H](C)NC(=O)[C@H](CC(C)C)NC(=O)[C@@H](NC(=O)[C@H](CCCCN)NC(=O)[C@H](CCCNC(=N)N)NC(=O)[C@H](Cc2ccc(O)cc2)NC(=O)[C@H](CO)NC(=O)[C@H](C)NC(=O)[C@@H](NC(=O)[C@H](Cc2ccccc2)NC(=O)[C@@H](NC(=O)[C@H](C)NC(=O)[C@H](CC(=O)O)NC(=O)[C@H](C)NC(=O)[C@H](Cc2ccc(O)cc2)NC)[C@@H](C)CC)[C@@H](C)O)C(C)C)C(=O)N[C@@H](CC(C)C)C(=O)N[C@@H](CCC(N)=O)C(=O)N[C@@H](CC(=O)O)C(=O)N1)C(=O)N[C@@H](CO)C(=O)N[C@@H](CCCNC(=N)N)C(N)=O [SP-19] (H-[NMeY]ADAIFTASYRKVLAQLSARK[S5]LQD[S5][Nle]SR-NH2; staple 22-26; N-terminus and C-terminus assumed) | 1 to 10 |
| CCCC[C@H](NC(=O)[C@@H](NC(=O)[C@H](CC(=O)O)NC(=O)[C@H](CCC(N)=O)NC(=O)[C@H](CC(C)C)NC(=O)[C@H](C)NC(=O)[C@H](CCCCN)NC(=O)[C@H](CCCNC(=N)N)NC(=O)[C@H](C)NC(=O)[C@H](CO)NC(=O)[C@H](CC(C)C)NC(=O)[C@H](CCC(N)=O)NC(=O)[C@H](C)NC(=O)[C@H](CC(C)C)NC(=O)[C@@H](NC(=O)[C@H](CCCCN)NC(=O)[C@H](CCCNC(=N)N)NC(=O)[C@H](Cc1ccc(O)cc1)NC(=O)[C@H](CO)NC(=O)[C@H](C)NC(=O)[C@@H](NC(=O)[C@H](Cc1ccccc1)NC(=O)[C@@H](NC(=O)[C@H](C)NC(=O)[C@H](CC(=O)O)NC(=O)[C@H](C)NC(=O)[C@H](Cc1ccc(O)cc1)NC)[C@@H](C)CC)[C@@H](C)O)C(C)C)[C@@H](C)CC)C(=O)N[C@@H](CO)C(=O)N[C@@H](CCCNC(=N)N)C(N)=O [SP-20] (H-[NMeY]ADAIFTASYRKVLAQLSARKALQDI[Nle]SR-NH2) | 1 to 10 |
| CCCC[C@@H]1NC(=O)[C@H]([C@@H](C)CC)NC(=O)[C@H](CC(=O)O)NC(=O)[C@@](C)(NC(=O)[C@H](CC(C)C)NC(=O)[C@H](C)NC(=O)[C@H](CCCCN)NC(=O)[C@H](CCCNC(=N)N)NC(=O)[C@H](C)NC(=O)[C@H](CO)NC(=O)[C@H](CC(C)C)NC(=O)[C@H](CCC(N)=O)NC(=O)[C@H](C)NC(=O)[C@H](CC(C)C)NC(=O)[C@@H](NC(=O)[C@H](CCCCN)NC(=O)[C@H](CCCNC(=N)N)NC(=O)[C@H](Cc2ccc(O)cc2)NC(=O)[C@H](CO)NC(=O)[C@H](C)NC(=O)[C@@H](NC(=O)[C@H](Cc2ccccc2)NC(=O)[C@@H](NC(=O)[C@H](C)NC(=O)[C@H](CC(=O)O)NC(=O)[C@H](C)NC(=O)[C@H](Cc2ccc(O)cc2)NC)[C@@H](C)CC)[C@@H](C)O)C(C)C)CCCC=CCCC[C@@](C)(C(=O)N[C@@H](CCCNC(=N)N)C(N)=O)NC1=O [SP-21] (H-[NMeY]ADAIFTASYRKVLAQLSARKAL[S5]DI[Nle][S5]R-NH2; staple 24-28; N-terminus and C-terminus assumed) | 10 to 25 |
| CCCC[C@@H]1NC(=O)[C@H]([C@@H](C)CC)NC(=O)[C@@](C)(NC(=O)[C@H](CCC(N)=O)NC(=O)[C@H](CC(C)C)NC(=O)[C@H](C)NC(=O)[C@H](CCCCN)NC(=O)[C@H](CCCNC(=N)N)NC(=O)[C@H](C)NC(=O)[C@H](CO)NC(=O)[C@H](CC(C)C)NC(=O)[C@H](CCC(N)=O)NC(=O)[C@H](C)NC(=O)[C@H](CC(C)C)NC(=O)[C@@H](NC(=O)[C@H](CCCCN)NC(=O)[C@H](CCCNC(=N)N)NC(=O)[C@H](Cc2ccc(O)cc2)NC(=O)[C@H](CO)NC(=O)[C@H](C)NC(=O)[C@@H](NC(=O)[C@H](Cc2ccccc2)NC(=O)[C@@H](NC(=O)[C@H](C)NC(=O)[C@H](CC(=O)O)NC(=O)[C@H](C)NC(=O)[C@H](Cc2ccc(O)cc2)NC)[C@@H](C)CC)[C@@H](C)O)C(C)C)CCCC=CCCC[C@@](C)(C(N)=O)NC(=O)[C@H](CO)NC1=O [SP-22] (H-[NMeY]ADAIFTASYRKVLAQLSARKALQ[S5]I[Nle]S[S5]-NH2; staple 25-29; N-terminus and C-terminus assumed) | 10 to 25 |
| CCCC[C@H](NC(=O)[C@@H](NC(=O)[C@H](CC(=O)O)NC(=O)[C@H](CCC(N)=O)NC(=O)[C@H](CC(C)C)NC(=O)[C@H](C)NC(=O)[C@H](CCCCN)NC(=O)[C@H](CCCNC(=N)N)NC(=O)[C@H](C)NC(=O)[C@H](CO)NC(=O)[C@H](CC(C)C)NC(=O)[C@H](CCC(N)=O)NC(=O)[C@H](C)NC(=O)[C@H](CC(C)C)NC(=O)[C@@H](NC(=O)[C@H](CCCCN)NC(=O)[C@H](CCCNC(=N)N)NC(=O)[C@H](Cc1ccc(O)cc1)NC(=O)[C@]1(C)CCCC=CCCCCCC[C@@](C)(NC(=O)[C@H](Cc2ccc(O)cc2)NC)C(=O)N[C@@H](CC(=O)O)C(=O)N[C@@H](C)C(=O)N[C@@H]([C@@H](C)CC)C(=O)N[C@@H](Cc2ccccc2)C(=O)N[C@@H]([C@@H](C)O)C(=O)N[C@@H](C)C(=O)N1)C(C)C)[C@@H](C)CC)C(=O)N[C@@H](CO)C(=O)N[C@@H](CCCNC(=N)N)C(N)=O [SP-23] (H-[NMeY][R8]DAIFTA[S5]YRKVLAQLSARKALQDI[Nle]SR-NH2; staple 2-9; N-terminus and C-terminus assumed) | 25 to 50 |
| CCCC[C@@H]1NC(=O)[C@H]([C@@H](C)CC)NC(=O)[C@H](CC(=O)O)NC(=O)[C@H](CCC(N)=O)NC(=O)[C@H](CC(C)C)NC(=O)[C@H](C)NC(=O)[C@](C)(NC(=O)[C@H](CCCNC(=N)N)NC(=O)[C@H](C)NC(=O)[C@H](CO)NC(=O)[C@H](CC(C)C)NC(=O)[C@H](CCC(N)=O)NC(=O)[C@H](C)NC(=O)[C@H](CC(C)C)NC(=O)[C@@H](NC(=O)[C@H](CCCCN)NC(=O)[C@H](CCCNC(=N)N)NC(=O)[C@H](Cc2ccc(O)cc2)NC(=O)[C@H](CO)NC(=O)[C@H](C)NC(=O)[C@@H](NC(=O)[C@H](Cc2ccccc2)NC(=O)[C@@H](NC(=O)[C@H](C)NC(=O)[C@H](CC(=O)O)NC(=O)[C@H](C)NC(=O)[C@H](Cc2ccc(O)cc2)NC)[C@@H](C)CC)[C@@H](C)O)C(C)C)CCCCCCC=CCCC[C@@](C)(C(=O)N[C@@H](CCCNC(=N)N)C(N)=O)NC1=O [SP-32] (H-[NMeY]ADAIFTASYRKVLAQLSAR[R8]ALQDI[Nle][S5]R-NH2; staple 21-28; N-terminus and C-terminus assumed) | 1 to 10 |
| CCCC[C@@H]1NC(=O)[C@H]([C@@H](C)CC)NC(=O)[C@H](CC(=O)O)NC(=O)[C@H](CCC(N)=O)NC(=O)[C@H](CC(C)C)NC(=O)[C@](C)(NC(=O)[C@H](CCCCN)NC(=O)[C@H](CCCNC(=N)N)NC(=O)[C@H](C)NC(=O)[C@H](CO)NC(=O)[C@H](CC(C)C)NC(=O)[C@H](CCC(N)=O)NC(=O)[C@H](C)NC(=O)[C@H](CC(C)C)NC(=O)[C@@H](NC(=O)[C@H](CCCCN)NC(=O)[C@H](CCCNC(=N)N)NC(=O)[C@H](Cc2ccc(O)cc2)NC(=O)[C@H](CO)NC(=O)[C@H](C)NC(=O)[C@@H](NC(=O)[C@H](Cc2ccccc2)NC(=O)[C@@H](NC(=O)[C@H](C)NC(=O)[C@H](CC(=O)O)NC(=O)[C@H](C)NC(=O)[C@H](Cc2ccc(O)cc2)NC)[C@@H](C)CC)[C@@H](C)O)C(C)C)CCCCCCC=CCCC[C@@](C)(C(N)=O)NC(=O)[C@H](CO)NC1=O [SP-33] (H-[NMeY]ADAIFTASYRKVLAQLSARK[R8]LQDI[Nle]S[S5]-NH2; staple 22-29; N-terminus and C-terminus assumed) | 10 to 25 |
